# Assay results: the supplement of paper PMC12217912
# The list shows a part of the results. The full chains were built here from the parent and the listed change. Values near 0.05 are background.
# B1: TEV protease; numbered along this chain (parent)
# chain: MGESLFKGPRDYNPISSSICHLTNESDGHTTSLYGIGFGPFIITNKHLFRRNNGTLVVQSLHGVFKVKDTTTLQQHLVDGRDMIIIRMPKDFPPFPQKLKFREPQREERICLVTTNFQTKSMSSMVSDTSCTFPSGDGIFWKHWIQTKDGQCGSPLVSTRDGFIVGIHSASNFTNTNNYFTSVPKNFMELLTNQEAQQWVSGWRLNADSVLWGGHKVFMVKPEEPFQPVKEATQL
# Variants of: B1
# Assay: raw area under fraction-flipped curve 0-4 h after induction (AUC4h, not background-subtracted), DNA-recorder readout of cleavage of the substrate (dimensionless); higher = more cleavage of the substrate by the protease variant
# Conditions: temperature: 34 °C; time window: 0-4 h after rhamnose induction
# Method: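 In vivo DNA recorder in E. coli TOP10(DE3) ΔrhaA at 34 °C. Each TEVp single-site mutant (parent TEVp 0) is paired with a single-site variant of the 7-mer TEVs (canonical ENLYFQ|S). The substrate sits between flexible linkers in a Bxb1-sfGFP-TEVs-SsrA fusion, so cleavage stabilises Bxb1 and speeds flipping of a recombination array, read by NGS. The value is the raw area under the fraction-flipped curve over 0-4 h after rhamnose induction (AUC4h), with ≥20 reads per time point. It is not background-subtracted; inactive controls average about 0.047.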
# 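Note: Bxb1 expression induced with 0.2% (w/v) L-rhamnose at OD600 near 0.5, cultures sampled hourly, flipped fraction per protease–substrate barcode pair counted by paired-end Illumina sequencing.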
Variant,area with substrate ENLYFQA,area with substrate ENLYFQC,area with substrate ENLYFQD,area with substrate ENLYFQE,area with substrate ENLYFQF,area with substrate ENLYFQG,area with substrate ENLYFQH,area with substrate ENLYFQI,area with substrate ENLYFQK,area with substrate ENLYFQL,area with substrate ENLYFQM,area with substrate ENLYFQN,area with substrate ENLYFQP,area with substrate ENLYFQQ,area with substrate ENLYFQR,area with substrate ENLYFQS,area with substrate ENLYFQT,area with substrate ENLYFQV,area with substrate ENLYFQW,area with substrate ENLYFQY
S16Q,0.109,0.123,0.0728,0.0474,0.0929,0.0871,0.0778,0.0683,0.0581,0.0668,0.0923,0.0891,0.0671,0.0827,0.0619,0.108,0.0735,0.0603,0.0672,0.0732
S16R,0.111,0.134,0.0602,–,0.0819,0.101,–,0.0595,0.0751,0.0644,0.0918,0.0728,0.0552,0.0694,0.0716,0.111,0.0744,0.0636,0.0638,0.0768
S16T,0.104,0.115,–,–,–,0.101,0.0873,0.0615,0.0455,0.0579,–,0.0672,0.0589,0.0697,0.0546,0.102,0.0661,0.0554,0.0605,–
S16Y,0.117,0.116,0.0976,–,–,0.0913,–,0.0614,–,0.0657,0.0862,–,0.0496,–,0.0614,0.0996,0.0891,0.0619,0.0803,–
S17W,0.094,0.109,0.0631,–,–,0.0917,0.0762,0.0556,–,0.0641,0.0892,0.0779,–,0.0706,0.0653,0.103,0.0518,0.0526,0.067,0.0629
S18C,0.11,0.101,–,–,0.0744,–,0.0739,0.061,0.0647,0.0572,0.0928,0.082,–,0.0699,0.0601,0.104,0.0825,0.046,0.0714,0.0673
I19R,0.0655,0.0726,0.0568,–,–,0.0571,–,0.042,0.0577,0.0478,0.0551,0.0492,0.0536,–,0.0569,0.0571,0.0324,0.051,0.0494,0.0628
H21P,0.0411,0.0435,0.0642,0.0515,–,0.0524,0.0522,0.0512,0.0475,0.053,0.053,0.0494,0.0244,–,0.0539,0.0544,0.0491,0.0517,0.0445,0.058
T23P,0.0437,0.0439,–,0.0728,–,0.0453,0.0497,0.0457,–,0.0316,0.0466,0.0394,0.0467,–,0.0433,0.0443,0.0447,0.0288,0.0298,0.0429
N24C,0.0801,0.084,0.0493,–,0.0711,–,0.0759,0.0581,0.0626,0.0645,0.0749,0.0912,0.0527,0.0615,0.0554,0.0796,0.0607,–,0.0702,0.0648
N24H,0.076,–,–,0.0644,–,0.0949,–,0.0372,0.0516,0.0729,0.0792,0.0613,0.0581,0.0649,0.0631,0.0855,–,0.0581,0.0606,–
